Measurements as given in the supplement of paper PMC7826260.
This is one part of the list. One pool of 16,384 single-stranded DNAs met each Rep nickase domain in vitro (3 µM enzyme, 1 h, 37 °C); shown is the middle of each 90-letter strand. Values are log2 of uncut reads against the no-enzyme pool; the lower, the more was cut; hits are not called. Counts are relative to all reads; where an enzyme cuts many sequences, the uncut ones exceed 0.

Legend:
Experiment in all cases: uncleaved DNA left, log2 of reads against the no-enzyme library (log2 ratio); higher = less cleavage (more negative = more Rep cleavage of the k-mer); sequences stand for … in CTCGTCCG…ACCGGAGA
[1] = tested on: T1, Rep nickase domain of Muscovy duck circovirus
T1 sequence (residues 1-111, tag not shown): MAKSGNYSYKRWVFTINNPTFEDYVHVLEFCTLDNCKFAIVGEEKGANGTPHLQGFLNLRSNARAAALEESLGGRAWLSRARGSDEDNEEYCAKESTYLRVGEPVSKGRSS
Procedure: (§1)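 A pool of 90-nt single-stranded DNAs with seven random bases just before the constant AC of the nick site (name = the seven bases) was cut by 3 µM recombinant His6-SUMO-tagged Rep nickase domain (300 nM DNA, 50 mM HEPES pH 8.0, 50 mM NaCl, 1 mM MnCl2, 1 h, 37 °C, three replicates). Uncut DNA was amplified and sequenced.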

[2] = tested on: T2, Rep nickase domain of banana bunchy top virus
T2 sequence (residues 1-94, tag not shown): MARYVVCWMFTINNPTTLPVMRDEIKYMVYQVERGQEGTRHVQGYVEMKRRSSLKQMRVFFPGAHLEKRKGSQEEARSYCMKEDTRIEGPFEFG
Procedure: as §1

[3] = tested on: T3, Rep nickase domain of cabbage leaf curl virus
T3 sequence (residues 1-116, tag not shown): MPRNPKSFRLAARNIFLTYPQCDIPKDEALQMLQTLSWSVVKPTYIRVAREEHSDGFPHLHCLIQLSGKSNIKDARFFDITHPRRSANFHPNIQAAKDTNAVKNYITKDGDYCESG
Procedure: as §1

[4] = tested on: T4, Rep nickase domain of chickpea chlorotic dwarf virus
T4 sequence (residues 1-124, tag not shown): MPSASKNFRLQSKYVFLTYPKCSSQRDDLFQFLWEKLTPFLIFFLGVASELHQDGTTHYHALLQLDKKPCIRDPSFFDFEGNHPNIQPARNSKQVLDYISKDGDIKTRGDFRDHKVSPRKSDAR
Procedure: as §1

[5] = tested on: T5, Rep nickase domain of faba bean necrotic yellows virus
T5 sequence (residues 1-98, tag not shown): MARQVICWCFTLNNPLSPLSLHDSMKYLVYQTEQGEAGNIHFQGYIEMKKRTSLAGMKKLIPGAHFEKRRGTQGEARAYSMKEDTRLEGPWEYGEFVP
Procedure: as §1

[6] = tested on: T6, Rep nickase domain of maize striate mosaic virus
T6 sequence (residues 1-117, tag not shown): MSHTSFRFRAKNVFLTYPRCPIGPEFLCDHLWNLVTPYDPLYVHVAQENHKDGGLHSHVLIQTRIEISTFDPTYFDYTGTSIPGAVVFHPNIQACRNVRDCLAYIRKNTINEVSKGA
Procedure: as §1

[7] = tested on: T7, Rep nickase domain of porcine circovirus 2
T7 sequence (residues 2-116, tag not shown): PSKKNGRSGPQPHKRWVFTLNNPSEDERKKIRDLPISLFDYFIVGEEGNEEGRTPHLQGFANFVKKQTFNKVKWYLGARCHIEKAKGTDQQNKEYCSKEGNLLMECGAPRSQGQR
Procedure: as §1

[8] = tested on: T8, Rep nickase domain of tomato golden mosaic virus
T8 sequence (residues 1-124, tag not shown): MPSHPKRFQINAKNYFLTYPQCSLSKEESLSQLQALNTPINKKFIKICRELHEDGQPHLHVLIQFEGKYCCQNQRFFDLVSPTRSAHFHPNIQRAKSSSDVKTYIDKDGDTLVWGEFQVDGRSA
Procedure: as §1

[9] = tested on: T9, Rep nickase domain of tomato yellow leaf curl virus
T9 sequence (residues 1-136, tag not shown): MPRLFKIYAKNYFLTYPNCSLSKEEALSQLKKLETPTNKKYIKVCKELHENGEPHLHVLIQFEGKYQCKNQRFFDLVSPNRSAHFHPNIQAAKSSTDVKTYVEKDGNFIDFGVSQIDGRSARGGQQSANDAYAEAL
Procedure: as §1

[10] = tested on: T10, Rep nickase domain of wheat dwarf virus
T10 sequence (residues 1-137, tag not shown): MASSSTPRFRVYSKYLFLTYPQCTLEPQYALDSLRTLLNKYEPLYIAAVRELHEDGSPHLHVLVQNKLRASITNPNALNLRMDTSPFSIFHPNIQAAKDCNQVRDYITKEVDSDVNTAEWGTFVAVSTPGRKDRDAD
Procedure: as §1

Row | Sequence | uncleaved DNA left (log2) [1] | uncleaved DNA left (log2) [2] | uncleaved DNA left (log2) [3] | uncleaved DNA left (log2) [4] | uncleaved DNA left (log2) [5] | uncleaved DNA left (log2) [6] | uncleaved DNA left (log2) [7] | uncleaved DNA left (log2) [8] | uncleaved DNA left (log2) [9] | uncleaved DNA left (log2) [10]
1 | GACGACG | 0.0387 | 0.0751 | -0.101 | 0.361 | 0.0828 | 0.334 | 0.166 | 0.168 | -0.0233 | 0.245
2 | TTCCCGC | 0.0526 | -0.0176 | -0.234 | -0.685 | -0.0376 | -0.82 | -0.0066 | -0.115 | -0.0139 | -0.0633
3 | AAGCATG | 0.11 | 0.0723 | 0.224 | 1.02 | 0.0364 | 1.03 | 0.195 | 0.118 | -0.00337 | 0.00505
4 | GATAGTT | 0.056 | -0.437 | 0.216 | -1.19 | -0.0836 | 0.784 | -1.45 | 0.000468 | 0.0267 | 0.0516
5 | CGAAGAG | 0.173 | 0.134 | -0.435 | -0.312 | 0.115 | -0.876 | 0.228 | 0.0956 | 0.162 | 0.00255
6 | AGTCACC | 0.0161 | -0.128 | 0.157 | 0.24 | -0.148 | 0.0901 | -0.31 | -0.0836 | -0.0948 | -0.0824
7 | GAACGGA | 0.19 | 0.168 | 0.293 | 0.73 | 0.0776 | 0.393 | 0.255 | 0.188 | 0.0341 | 0.137
8 | TAGTCCT | -2.42 | -3.04 | -1.71 | -2.72 | -2.38 | 0.267 | -4.17 | -0.27 | 0.0893 | -0.208
9 | GAACTCT | -0.0595 | -0.00681 | -0.249 | -2.34 | -0.00397 | 0.702 | -0.232 | -0.0686 | -0.0424 | -0.0791
10 | CTAATTA | -0.0359 | 0.0663 | -0.00304 | -1.29 | -0.000125 | -0.682 | -0.154 | 0.00794 | 0.0193 | 0.152
11 | GTTTAGT | -0.633 | -0.0414 | 0.172 | 0.697 | 0.0754 | 1.36 | -1.04 | 0.0414 | 0.0407 | -0.049
12 | CTGAGTT | 0.000931 | -0.0324 | -0.0439 | -1.67 | -0.0564 | -0.521 | -0.271 | -0.151 | 0.0958 | -0.136
13 | TTCTAAG | 0.259 | 0.157 | -0.757 | -0.407 | 0.105 | -1.15 | 0.142 | 0.0284 | 0.13 | 0.0661
14 | TTGCCTT | -0.137 | 0.00516 | -0.415 | -1.75 | 0.15 | -0.793 | -1.52 | 0.00294 | 0.0598 | 0.0821
15 | TTTCCAA | -0.0321 | -0.0154 | 0.231 | 0.261 | -0.0988 | 0.451 | -0.144 | -0.00785 | 0.115 | 0.0851
16 | TCTTTAA | 0.084 | 0.136 | 0.241 | -0.166 | 0.17 | -0.126 | 0.0429 | 0.119 | 0.2 | 0.106

Row | Sequence | uncleaved DNA left (log2) [1] | uncleaved DNA left (log2) [2] | uncleaved DNA left (log2) [3] | uncleaved DNA left (log2) [4] | uncleaved DNA left (log2) [5] | uncleaved DNA left (log2) [6] | uncleaved DNA left (log2) [7] | uncleaved DNA left (log2) [8] | uncleaved DNA left (log2) [9] | uncleaved DNA left (log2) [10]
17 | AAATATA | -0.564 | 0.0927 | -1.17 | -2.94 | 0.105 | -0.706 | -1.6 | -0.0442 | 0.108 | -0.284
18 | TAGTGGG | -0.141 | -0.127 | -0.552 | -0.744 | -0.0208 | -1.08 | -0.152 | -0.0616 | -0.0105 | -0.078
19 | GTTCTCA | 0.0836 | 0.183 | 0.358 | 0.955 | 0.0299 | 1.89 | 0.197 | 0.0792 | 0.119 | 0.11
20 | ATAGGTC | 0.0546 | -0.00688 | 0.299 | 0.837 | -0.0365 | 0.656 | -0.00308 | 0.171 | 0.0304 | 0.0491
21 | GGGATCT | 0.0117 | -0.0141 | 0.83 | 1.93 | -0.134 | 2.19 | 0.171 | -0.116 | -0.0616 | 0.0974
22 | CACTGGG | -0.0402 | -0.222 | -0.643 | -0.799 | -0.0155 | -1.3 | 0.0256 | -0.244 | -0.0542 | -0.261
23 | AGGTCGC | 0.178 | 0.0849 | -0.187 | -0.464 | 0.167 | -0.527 | 0.0277 | -0.0204 | 0.0694 | 0.054
24 | CTCGCTG | 0.0134 | -0.0124 | 0.195 | 0.642 | -0.00559 | 0.866 | 0.0714 | 0.0606 | -0.118 | -0.0625
25 | CCTGCGC | 0.0632 | 0.103 | -0.689 | -0.433 | 0.0702 | -0.786 | 0.126 | -0.0695 | 0.157 | -0.141
26 | GCCGTGA | 0.18 | -0.0281 | 0.395 | 0.856 | -0.0697 | 0.526 | 0.236 | 0.0625 | 0.106 | 0.041
27 | GCTCACG | -0.0377 | -0.137 | -0.91 | -0.439 | 0.0345 | -0.886 | 0.126 | -0.166 | -0.0338 | -0.177
28 | TAATAGA | -0.106 | -0.0299 | -2.41 | -2.31 | 0.126 | -1.29 | -0.11 | -0.139 | 0.135 | -0.642
29 | TTCAAAT | 0.0353 | 0.116 | 0.299 | -0.238 | 0.147 | -0.0547 | -0.348 | 0.0211 | 0.138 | 0.142
30 | GCACCGC | -0.108 | 0.0474 | -0.244 | -0.161 | 0.061 | -0.475 | 0.0519 | -0.0106 | 0.00466 | 0.0321
31 | TGGCCGC | -0.0193 | -0.00494 | 0.00855 | -0.285 | -0.0444 | -0.182 | -0.00488 | -0.135 | 0.0115 | -0.0286
